Experimental data reported in PubChem BioAssay AID1240 (Sanford-Burnham Center for Chemical Genomics, 2008).
Among all 50,000 compounds or so, about 800 (1.6%) showed an effect of 50% or more. The list shows a part of the results.

molecular target: Bcl-2-like protein 10 (Homo sapiens) (UniProt Q9HD36); experiment: Phenotype converters, Bcl-B/TR3 peptide binding displacement, primary biochemical FP (AID 1240); conditions: GST-Bcl-B / FITC-TR3 peptide fluorescence polarization; stronger effect = higher value; compound at 3.75 mg/L;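 note: 0% = Bcl-B with tracer peptide and DMSO and 100% = tracer peptide lacking Bcl-B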
Chain of UniProt Q9HD36 (Q9HD36 whole entry, looked up): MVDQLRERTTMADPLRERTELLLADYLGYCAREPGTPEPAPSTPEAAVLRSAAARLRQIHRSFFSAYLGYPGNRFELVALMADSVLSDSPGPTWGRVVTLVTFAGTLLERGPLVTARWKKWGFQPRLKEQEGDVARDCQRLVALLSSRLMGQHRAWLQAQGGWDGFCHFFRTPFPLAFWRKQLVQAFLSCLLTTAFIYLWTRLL

| SMILES | displacement |
| --- | --- |
| CC(=O)N/N=C/c1cc(C)n(-c2ccc(Cl)cc2Cl)c1C | -7.1% |
| Cn1c(COc2nnc(-c3ccccc3)c3ccccc23)nc2ccccc21 | 13.9% |
| Cc1cc(C)n(C(=O)COc2ccc(Br)cc2)n1 | 1.2% |
| COc1ccc(Nc2nnc(-c3ccc(C(=O)NCCO)cc3)c3ccccc23)cc1 | 8.1% |
| CCOC(=O)CSc1nnc(-c2cccc(Br)c2)o1 | 13.1% |
| CCC(=O)Nc1nc(C)c(-c2csc(Nc3ccc(N(C)C)cc3)n2)s1 | 10.1% |
| CC(=O)Oc1c(-c2ccc(Cl)cc2)c2nc3ccccc3nc2c2ccccc12 | -1.4% |
| COc1ccc(CN2CCN(Cc3cccc([N+](=O)[O-])c3)CC2)c(OC)c1 | -10.4% |
| C=CCOc1ccc(/C=C2\SC(N)=NC2=O)cc1OC | 7.1% |
| NC(=O)C1(S(=O)(=O)c2ccccc2)CCCCC1 | 14.5% |
| Cc1cc2nc(-c3cccc(NC(=O)c4ccc(Br)o4)c3)oc2cc1C | 41.3% |
| COc1ccc(/C=C(/C#N)C(=O)Nc2cccc(C(F)(F)F)c2)cc1 | 7% |
| CC(=O)Nc1ccc(Sc2ccc(NC(C)=O)cc2)cc1 | -4% |
| O=[N+]([O-])c1ccc(N2CCOCC2)cc1NC1CC1 | 4% |
| Cc1ccc(C(=O)CCNc2cccc(Cl)c2)o1 | -20.5% |
| O=C(Nc1ccc(Cl)cc1)c1ccc(S(=O)(=O)c2ccccc2)cc1 | -3.6% |
| Cc1onc(-c2ccccc2)c1C(=O)NCc1cccnc1 | 8.7% |
| CCOc1cc(C(=O)Nc2ccc(Br)cn2)cc(OCC)c1OCC | -0.6% |
| CC1CCCCN1C(=O)Nc1ccccc1 (stereo unspecified) | 12.8% |
| O=C1C(Nc2ccc(Cl)cc2)=C(N2CCCCC2)C(=O)c2ccccc21 | -11.5% |
| Cc1ccc(N(CC(=O)Nc2ccc3ccccc3c2)S(C)(=O)=O)cc1Cl | 10.4% |
| COc1ccccc1N1C(=O)CC(Sc2ccccc2C(=O)O)C1=O (stereo unspecified) | 2.5% |
| O=C(NCCc1ccccc1F)C1CC(=O)N(c2ccc(Br)cc2)C1 (stereo unspecified) | -4.4% |

| SMILES | displacement |
| --- | --- |
| COC(=O)c1cc(Cl)c(NC(=O)c2cc(OC)c(OC)c(OC)c2)cc1OC | -8.1% |
| Cc1cccc2c(=O)oc(-c3cccc([N+](=O)[O-])c3)nc12 | -6.2% |
| COc1ccc(NC(=O)C2=C(C)NC(=O)NC2c2cccc(Cl)c2)cc1 (stereo unspecified) | 83.7% |
| O=C1NC(=S)N(c2ccc(Br)cc2)C(=O)/C1=C/c1cccs1 | 16.2% |
| Cc1sc2nc(SCc3ccc(C(=O)NCCO)cc3)[nH]c(=O)c2c1C | -31.9% |
| COC(=O)c1ccc(-c2ccc(CO)o2)cc1 | -3.4% |
| COc1cc(/C=N/Nc2nc(Nc3ccccc3)nc(N3CCOCC3)n2)ccc1OCc1ccccc1 | -1.1% |
| COC(=O)c1cccc(-c2ccc(/C=C3\C(=O)N(c4cccc(C(=O)O)c4)N=C3C)o2)c1 | 17.3% |
| CN(C)C1(C)CC2C(C/C1=N\O)C2(C)C (stereo unspecified) | 12.1% |
| COc1cc(/C=C2/SC(=S)N(C)C2=O)cc(Cl)c1OCCOc1ccc(C)cc1 | 0.7% |
| COc1ccc(CN2CCN(Cc3ccc4ccccc4c3)CC2)c(OC)c1 | -1% |
| N#C/C(=C/c1ccc([N+](=O)[O-])o1)C(=O)Nc1cccc(Br)c1 | 9.1% |
| COc1cccc(/C=C2\SC(=O)N(CCC(=O)NNC(=O)c3cccc(Cl)c3)C2=O)c1 | -1.6% |
| CC(=O)CC(=O)Nc1ccnn1-c1ccccc1 | 8.6% |
| O=C(COc1ccccc1)N1CCN(c2ccc([N+](=O)[O-])cc2Cl)CC1 | -7% |
| Cc1cc(C(C)(C)C)ccc1OC(=O)Nc1ccccc1 | -0.3% |
| CNC(=S)NCC12CC3CC(CC(C3)C1)C2 | -2.7% |
| Cc1cccnc1NC(=O)Cc1ccc([N+](=O)[O-])cc1 | 3.1% |
| C=CCC1NC2(CCCCC2)Cc2cc(OC)c(OC)cc21 (stereo unspecified) | -19.4% |
| NS(=O)(=O)c1ccc(NC(=O)CSCCOC(=O)c2cc3ccccc3o2)cc1 | 9.8% |
| Cc1cc(C)cc(N2C(=O)NC(=O)/C(=C\c3ccc(C(=O)O)cc3)C2=O)c1 | -7.2% |
| CCc1ccc(C2(c3ccc(CC)cc3)C(=O)NCc3ccccc32)cc1 | 10.9% |
| COc1ccc(CCN=Cc2cccn2-c2sc3c(c2C#N)CCCC3)cc1OC | 22.8% |

| SMILES | displacement |
| --- | --- |
| COc1ccccc1C(=O)OC1CC(C)N(C)CC1C (stereo unspecified) | 9% |
| COc1cc2c(cc1NS(=O)(=O)c1ccccc1)oc1ccccc12 | 9.5% |
| C=CCOc1c(Br)cc(/C=C2/N=C(c3ccccc3)OC2=O)cc1OC | -4.9% |
| O=C(Nc1cccc(-c2nc3cc(Cl)ccc3o2)c1)c1ccc(Cl)cc1 | 0.2% |
| O=C(Nc1cccc(C(F)(F)F)c1)c1cc([N+](=O)[O-])ccc1Cl | -13.5% |
| Cc1cccc(NC(=O)C2CC(=O)N=C(N)S2)c1 (stereo unspecified) | 15.4% |
| O=C(NC(=S)Nc1ccc(Cl)c(Cl)c1)c1ccco1 | 10.7% |
| COc1cc(C(=O)Nc2cc(-c3nc4cc(Cl)cc(Cl)c4o3)ccc2C)cc(OC)c1OC | -0.3% |
| Cc1ccc(C(=O)Nc2ccc(S(=O)(=O)N3CCCCC3)cc2)cc1 | -5.3% |
| O=C1CC(c2ccc(F)c(F)c2)c2cc(Br)c3ccccc3c2N1 (stereo unspecified) | -6.1% |
| CCOC(=O)C(CCCCCOc1ccc(F)cc1)C(=O)OCC | 12.1% |
| Clc1ccc(N2CCN(N=Cc3ccccc3Br)CC2)cc1 | -5.3% |
| Cc1nc2n(CC(=O)N3CCCC3)c3ccccc3n2n1 | -3.1% |
| O=C(NC1CCCCC1)c1c(F)cccc1F | -1% |
| O=C(O)C1(O[N+](=O)[O-])C2CC3CC(C2)CC1C3 (stereo unspecified) | -13.3% |
| COc1ccc(CN2CCN(C3CCCC(C)C3)CC2)c(OC)c1OC (stereo unspecified) | -17.3% |
| COc1cc(C2/C(=C(\O)c3ccc(Cl)cc3)C(=O)C(=O)N2CCCCCC(=O)O)ccc1O (stereo unspecified) | 0.6% |
| COc1ccc(/C=C/C(=O)Nc2ccc(F)c([N+](=O)[O-])c2)cc1 | 17.4% |
| CCN1C(=O)/C(=C/c2cn(-c3ccccc3)nc2-c2cc3ccccc3n2C)SC1=S | -20.2% |
| O=C1C2C3C=CC(C3)C2C(=O)N1c1ncccn1 (stereo unspecified) | -3.6% |
| O=C(/C(=C\c1ccc([N+](=O)[O-])cc1)n1cncn1)c1ccc(Cl)cc1Cl | 9.9% |
| O=C(NCCN1CCOCC1)c1cc(Cl)ccc1Cl | 13.8% |
| O=C(N/N=C/c1cccc(O)c1)c1n[nH]c2c1CCC2 | -10.1% |

| SMILES | displacement |
| --- | --- |
| CSc1ccc(/C=C(/NC(=O)c2ccc(C)cc2)c2nc3ccccc3[nH]2)cc1 | -7.3% |
| CC(=O)NC(NC(C)=O)c1ccccc1Cl | -4.6% |
| Cn1c(=O)cc2c3c(c(N4CCCC4)ccc31)C(=O)c1ccccc1-2 | 38.2% |
| O=[N+]([O-])c1ccc(CN2CCN(S(=O)(=O)c3ccc(Cl)cc3)CC2)cc1 | -0.2% |
| C/C(=N\NC(=O)C(C)Sc1nc(C)cc(C)n1)c1ccc(Br)cc1 (stereo unspecified) | 5.3% |
| COc1ccccc1OCC(=O)Nc1cccc(C(=O)O)c1 | -4.4% |
| Cc1ccccc1NC(=O)CSc1nc(O)c(Cc2ccccc2)c(=O)n1-c1ccccc1 | 4.9% |
| Oc1c(C2=NCCCCC2)c2ccccc2n1-c1c(Cl)cccc1Cl | -2.7% |
| CC(C)=CCCC(C)CC1OCC(C)O1 (stereo unspecified) | -13% |
| COc1cccc(NC(=O)/C(=C/c2ccccc2)NC(C)=O)c1 | 12.4% |
| CN(C)CCCCCCCCCCNC(=O)/C=N\O | 2.1% |
| Cc1c(N2C(=O)S/C(=C\c3cccc([N+](=O)[O-])c3)C2=O)c(=O)n(-c2ccccc2)n1C | 4% |
| COc1ccc(NC(=O)c2cnn(-c3ccccc3)c2NC(=O)c2ccc(C)cc2)cc1 | 3.7% |
| CC1C(c2ccccc2)NC(c2ccccc2)C(C)C1O (stereo unspecified) | 1.6% |
| Cc1cccc(OCCOc2ccccc2/C=C2/SC(=S)N(C)C2=O)c1 | -0.4% |
| Cc1cc(NC(=O)c2cccc(F)c2)ccc1NC(=O)c1ccccc1 | -3.3% |
| COc1cccc(/C=N/N=C(\N)c2nonc2N)c1O | -21.9% |
| COc1cccc(CN2CCN(C3CCN(Cc4ccccc4)CC3)CC2)c1 | -0.2% |
| Cc1cc(F)c(F)c(C(=O)N2CCN(c3cc(N4CCCCC4)c(F)cc3[N+](=O)[O-])CC2)c1Cl | -8% |
| CCOCCOC(=O)C1=C(C)NC2=C(C(=O)CCC2)C1c1cccc(Cl)c1 (stereo unspecified) | 4.1% |
| O=C(Nc1sc2c(c1C(=O)Nc1ccccc1)CCCCC2)c1ccc([N+](=O)[O-])cc1 | 0.2% |
| O=C(COc1ccccc1)Nc1ccc(Cl)cn1 | 15% |
| Cc1c(NC(=S)NC(=O)c2ccccc2Cl)cccc1-c1nc2ccccc2s1 | -7.9% |

| SMILES | displacement |
| --- | --- |
| O=C(O)CCCCCCCCCCN1C(=O)/C(=C/c2cccc(Br)c2)SC1=S | -3.4% |
| O=C(NCc1ccccc1Cl)c1c(F)cccc1F | -4.1% |
| Clc1ccccc1Cc1noc(-c2ccccc2Cl)n1 | 10% |
| COc1cccc(C(=O)Nc2ccc(-c3nc4cc(C)ccc4o3)c(O)c2)c1 | -24.4% |
| O=c1[nH]nc2c3cc([N+](=O)[O-])c(Cl)cc3n3c(c1-2)CCCCC3 | 8.9% |
| O=C(Nc1ccc(Cl)cc1)c1ccc(OC2CSC2)cc1 | -13.5% |
| O=C(/C=C/c1cc(Br)cs1)Nc1cccc([N+](=O)[O-])c1 | 10.6% |
| CCOC(=O)COc1ccc2c(c1)c(C(=O)OCC)c(C)n2C | 7.8% |
| Cc1ccc2nc(NC(=O)C3CC(O)CN3C(=O)OC(C)(C)C)sc2c1 (stereo unspecified) | 6.2% |
| OC(COc1ccc2ccccc2c1)CN1CCCC1 (stereo unspecified) | -3% |
| O=C(/C=C/c1ccc([N+](=O)[O-])cc1)c1cccc(Br)c1 | -5.8% |
| CC(=O)C1=C(C)NC(c2ccc(Cl)cc2Cl)NC1c1ccc(Cl)cc1Cl (stereo unspecified) | -7.3% |
| CCc1ccc(OCC(=O)Nc2ccc(-c3nc4cc(C)c(C)cc4o3)c(O)c2)cc1 | 118% |
| CCOc1ccc(Nc2nc(-c3cccs3)cs2)cc1 | 1.8% |
| COC(=O)c1ccccc1N1C(=O)c2ccc([N+](=O)[O-])cc2C1=O | -1.2% |
| Cc1ccccc1NC(=O)CC1Sc2ccccc2NC1=O (stereo unspecified) | 0.8% |
| COc1ccc(-c2ccc(/C=N/n3cnnc3)o2)c([N+](=O)[O-])c1 | 14.5% |
| CCOC(=S)N/C(=N/S(C)(=O)=O)c1ccccc1 | 8% |
| CC(=O)N(C(C)=O)c1ccc(Sc2ccc(Oc3ccc(Sc4ccc(N(C(C)=O)C(C)=O)cc4)cc3)cc2)cc1 | 1.6% |
